This passage reports T/C results from PubChem BioAssay AID328 (DTP/NCI, 2004).

Toxic doses and inconclusive results are not listed. Certain results were filed several times, with different values. They are shown here; other results are not. The source may hold further records. Results that share an entry are repeated measurements across runs, samples, wells, individuals or studies. Starred links: 1 amine or outer side, 2 acyl side, 3 side chain; linkers in the order of their positions; H or OH if unused. Positions of bridges follow the written chain, without caps; N, C: chain ends. Non-standard residues stand in square brackets, D forms with d. Residues, ends and D or L forms follow the SMILES beside them. Chains are numbered I, II in the order given. Actinocin(9to1) = Cc1c2oc3c(C)ccc(C(=O)[*:1])c3nc-2c(C(=O)[*:2])c(N)c1=O; NMeV = CN[CH](C(=O)O)C(C)C; Sar = CNCC(=O)O

The assay relates to BDF1 mice, P388 leukemia ip, median survival T/C. The experiment in a line: NCI In Vivo Anticancer Drug Screen. Data for tumor model P388 Leukemia (intraperitoneal) in B6D2F1 (BDF1) mice. The note with it: endpoint: median survival time, higher = longer survival. In outline:
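Transplantable tumour in mice; compound vs vehicle dosing; survival scored; ratio of treated to control reported.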

Turning to `COc1cc2c(cc1O)C(=O)CCCC2`, for the setting “dose: 200.0 mg/kg/injection, schedule: Q01DX009 (ip), vehicle: saline with Tween-80”, the T/C was 98 % of control and 150 % of control.

Regarding `COc1cccc2c1C(=O)c1c(O)c3c(c(O)c1C2=O)CC(O)(C(C)=O)CC3OC1CC(N)C(O)C(C)O1` (centres undefined), the T/C reads like this: (dose: 0.5 mg/kg/injection, schedule: Q01DX001 (ip), vehicle: saline) 113 % of control and 170 % of control; (dose: 1.0 mg/kg/injection, schedule: Q01DX001 (ip), vehicle: saline) 109 % of control and 180 % of control; (dose: 2.0 mg/kg/injection, schedule: Q01DX001 (ip), vehicle: saline) 109 % of control and 180 % of control; (dose: 4.0 mg/kg/injection, schedule: Q01DX001 (ip), vehicle: saline) 118 % of control, 180 % of control, 200 % of control. With `C[n+]1ccc(Nc2ccc(NC(=O)c3ccc(Nc4cc[n+](C)c5ccc(N)cc45)cc3)cc2)cc1`, the T/C (dose: 16.0 mg/kg/injection, schedule: Q01DX009 (ip), vehicle: Klucel (hydroxypropylcellulose) (HPC)) is 91 % of control and 200 % of control. On to `CSCS(=O)C[C@H](CO)NC(=O)/C=C/c1c(C)[nH]c(=O)[nH]c1=O` (some centres undefined), for which the T/C (dose: 3.13 mg/kg/injection, schedule: Q04DX002 (ip), vehicle: Klucel (hydroxypropylcellulose) (HPC)) was 109 % of control and 166 % of control. `C/C=C/c1ccc2ccc[n+](C)c2c1O`: for the setting “dose: 50.0 mg/kg/injection, schedule: Q04DX003 (ip), vehicle: saline sonified”, the T/C was 113 % of control and 190 % of control. Take `N#Cc1ccc(NC(=O)N(CCCl)N=O)cc1`: for the setting “dose: 1.3 mg/kg/injection, schedule: Q04DX003 (ip), vehicle: Klucel (hydroxypropylcellulose) (HPC)”, the T/C was 115 % of control and 150 % of control.

As for `COc1ccc(-c2csc(-c3ccccc3)n2)cc1N=Cc1ccc(N(CCCl)CCCl)c(OC)c1`, the T/C (dose: 100.0 mg/kg/injection, schedule: Q04DX003 (ip), vehicle: saline with Tween-80) is 113 % of control and 175 % of control. Turning to `Cc1c2oc3c(C)ccc(C(=O)NC4C(=O)NC(C(C)C)C(=O)N(C)CC(=O)N(C)CC(=O)N(C)C(C(C)C)C(=O)OC4C)c3nc-2c(C(=O)NC2C(=O)NC(C(C)C)C(=O)N(C)CC(=O)N(C)CC(=O)N(C)C(C(C)C)C(=O)OC2C)c(N)c1=O` (centres undefined) (I: TV[Sar][Sar][NMeV] / II: TV[Sar][Sar][NMeV]; ester I:1-I:C, II:1-II:C; linker I:N-II:N via Actinocin(9to1); configuration not given here), the T/C (dose: 375.0 micrograms/kg/injection, schedule: Q04DX003 (ip), vehicle: saline + alcohol) is 117 % of control and 166 % of control. With `CCC1=C(C[C@H]2NCCc3cc(OC)c(OC)cc32)C[C@H]2c3cc(OC)c(OC)cc3CCN2C1`, the T/C (dose: 22.0 mg/kg/injection, schedule: Q04DX003 (ip), vehicle: saline with Tween-80) was 122 % of control and 154 % of control. `O=P(OCc1ccccc1)(N(CCCl)CCCl)N1CCN(P(=O)(OCc2ccccc2)N(CCCl)CCCl)CC1` (centres undefined): for the setting “dose: 300.0 mg/kg/injection, schedule: Q04DX003 (ip), vehicle: saline with Tween-80”, the T/C was 104 % of control and 188 % of control. For `CC[C@]1(O)C[C@H]2CN(CCc3c([nH]c4ccccc34)[C@@](C(=O)OC)(c3cc4c(cc3OC)N(C=O)[C@H]3[C@@](O)(C(=O)OC)[C@H](OC(C)=O)[C@]5(CC)C=CCN6CC[C@]43[C@@H]65)C2)C1`, the T/C (dose: 0.39 mg/kg/injection, schedule: Q04DX002 (ip), vehicle: saline) was 109 % of control and 150 % of control; the T/C (dose: 0.78 mg/kg/injection, schedule: Q04DX002 (ip), vehicle: saline) was 100 % of control and 175 % of control; the T/C (dose: 1670.0 micrograms/kg/injection, schedule: Q04DX003 (ip), vehicle: saline) was 112 % of control and 377 % of control. With `Cc1cc2c(c3oc(C4(C)OC4C4OC4C)cc(=O)c13)C(=O)c1c(O)c(C3CC(C)(N(C)C)C(O)C(C)O3)cc(C3CC(N(C)C)C(O)C(C)O3)c1C2=O` (centres undefined), the T/C by setting is: (dose: 1.0 micrograms/kg/injection, schedule: Q01DX010 (ip), vehicle: carboxymethylcellulose (CMC)) 113 % of control and 170 % of control; (dose: 2.0 micrograms/kg/injection, schedule: Q01DX010 (ip), vehicle: carboxymethylcellulose (CMC)) 109 % of control and 200 % of control; (dose: 2.0 micrograms/kg/injection, schedule: Q01DX010 (ip), vehicle: saline) 120 % of control and 150 % of control.

Regarding `C1CCC2[N-]CC3CCCCC3[N-]CC3CCCCC3[N-]CC3CCCCC3[N-]CC2C1.[Cu]` (centres undefined), the T/C (dose: 1.56 mg/kg/injection, schedule: Q01DX009 (ip), vehicle: saline) was 123 % of control and 150 % of control. For the molecule `ClC1=NC(Cl)C(Cl)=N/C1=N\c1ncn[nH]1` (centres undefined), the T/C (dose: 33.0 mg/kg/injection, schedule: Q04DX003 (ip), vehicle: saline with Tween-80) is 113 % of control and 163 % of control.

`Cc1c2ccncc2c(C)c2c1[nH]c1ccccc12`: the T/C (dose: 60.0 mg/kg/injection, schedule: Q04DX003 (ip), vehicle: water) is recorded as 86 % of control, 91 % of control, 158 % of control.

As to `Cc1cc2c3ccccc3ccc2[n+]2ccccc12`, for the setting “dose: 12.37 mg/kg/injection, schedule: Q01DX009 (ip), vehicle: saline”, the T/C was 100 % of control and 165 % of control. Turning to `N[C@@H](Cc1ccc(N(CCCl)CCCl)cc1)C(=O)O`, the T/C is 98 % of control and 172 % of control (dose: 16.7 mg/kg/injection, schedule: Q01DX001 (ip), vehicle: saline); 84 % of control and 163 % of control (dose: 30.0 mg/kg/injection, schedule: Q01DX001 (ip), vehicle: Klucel (hydroxypropylcellulose) (HPC)). As to `CC1(C)N=C(N)N=C(N)N1c1ccc(Cl)c(Cl)c1`, the T/C (dose: 15.0 mg/kg/injection, schedule: Q01DX009 (ip), vehicle: Klucel (hydroxypropylcellulose) (HPC)) was 109 % of control and 180 % of control. Consider `O=P(N1CC1)(N1CC1)N1CCc2ccccc21`, for which the T/C (dose: 67.0 mg/kg/injection, schedule: Q04DX003 (ip), vehicle: saline) is on record as 123 % of control, 156 % of control, 165 % of control.

For the molecule `O/N=c1/ccn(O)c2ccccc12`, the T/C (dose: 0.22 mg/kg/injection, schedule: Q01DX009 (ip), vehicle: saline) was 105 % of control and 170 % of control. `O=C1NC(C2CCC3CN32)C(=O)NC1C1CCC2CN21` (centres undefined): the T/C (dose: 0.4 mg/kg/injection, schedule: Q01DX009 (ip), vehicle: saline) was 100 % of control and 150 % of control.
